# Reference: PubChem BioAssay AID1460 (National Center for Advancing Translational Sciences (NCATS), 2008)
# The whole screen tested about 270,000 compounds, of which about 5,800 (2.1%) were called active. This list was built around the results that the source calls inconclusive (neither active nor inactive); the mix of calls is not that of the screen. The call rests on the fitted dose curve; in most records, active means well fitted inhibition curve with a large enough effect; inconclusive means small, poorly fitted or top-dose-only effect; inactive means flat fitted curve, though single readings scatter. Potencies beside an inconclusive call are fits to weak or partial responses and may not hold up.
# Biological target: Microtubule-associated protein tau (Homo sapiens) (UniProt P10636)
# UniProt P10636, sequence (P10636 whole entry, looked up): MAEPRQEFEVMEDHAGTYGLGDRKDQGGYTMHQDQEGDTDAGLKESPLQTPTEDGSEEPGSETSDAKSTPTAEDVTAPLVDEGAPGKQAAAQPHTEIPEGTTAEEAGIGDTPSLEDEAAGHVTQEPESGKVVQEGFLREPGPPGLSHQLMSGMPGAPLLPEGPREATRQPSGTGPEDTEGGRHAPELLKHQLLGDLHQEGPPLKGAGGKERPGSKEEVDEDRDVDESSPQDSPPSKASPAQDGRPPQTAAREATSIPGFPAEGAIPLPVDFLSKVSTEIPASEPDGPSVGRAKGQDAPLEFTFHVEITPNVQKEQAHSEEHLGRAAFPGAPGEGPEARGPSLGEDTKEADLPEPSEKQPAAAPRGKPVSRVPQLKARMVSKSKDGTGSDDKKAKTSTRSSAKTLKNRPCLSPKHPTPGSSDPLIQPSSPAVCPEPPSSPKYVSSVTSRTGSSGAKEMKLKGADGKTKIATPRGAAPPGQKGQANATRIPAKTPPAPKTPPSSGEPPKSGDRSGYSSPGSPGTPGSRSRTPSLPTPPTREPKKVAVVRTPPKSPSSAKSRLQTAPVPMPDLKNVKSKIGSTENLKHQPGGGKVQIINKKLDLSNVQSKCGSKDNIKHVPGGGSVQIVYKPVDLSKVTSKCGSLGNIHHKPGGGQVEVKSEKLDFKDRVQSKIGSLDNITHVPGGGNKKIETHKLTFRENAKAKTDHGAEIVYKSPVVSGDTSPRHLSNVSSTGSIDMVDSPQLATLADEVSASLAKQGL
# Assay: qHTS for Inhibitors of Tau Fibril Formation, Thioflavin T Binding; further: nearly all actives have a fitted effect of over 55% in size
# Details: recombinant tau K18 P301L (four-repeat tau fragment), heparin-induced fibrillization, ThT fluorescence; series mostly up to 57.4 µM; activity, negative = inhibition: at the top concentration
# Method in brief: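 Heparin-induced fibrillization of the P301L-mutant K18 repeat-domain fragment of human tau was followed by ThT binding in quantitative high-throughput format.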
# On the % scale 0 is the no-effect control and ±100 the full control effect; potency means the concentration at half of the fitted maximal effect; tags describe the fitted curve by direction and shape.
SMILES,Potency,"activity, negative = inhibition"
CC(=O)c1ccc(N2CCN(C(=O)c3cccc(Oc4ccccc4)c3)CC2)cc1,"inconclusive: 35.5 µM [inhibitor, single point]",
CC(C)(C)OC(=O)N1CCCC(C(=O)CC#N)C1 (stereo unspecified),"inconclusive: 39.8 µM [inhibitor, single point]",
Cc1ccc2nc(-c3ccc(-c4ccccn4)s3)cn2c1,"inconclusive: 1.41 µM [inhibitor, full curve]",
C/C(Cn1nnc([N+](=O)[O-])n1)=N\NC(=O)c1ccncc1,,inactive: -9.19%
COc1ccc(NC(=O)CC2Nc3ccccc3NC2=O)cc1 (stereo unspecified),,inactive: -14.4%
N#Cc1c(NC(=O)CSc2nnc(-c3ccncc3)n2CC2CCCO2)sc2c1CCCC2 (stereo unspecified),,inactive: -12.9%
Cc1cc(C(=O)NCc2ccccc2)c2c(C)nn(-c3cccc(F)c3)c2n1,,inactive: -2.86%
O=C(NN1C(=O)C2C3C=CC(C3)C2C1=O)c1ccncc1 (stereo unspecified),,inactive: 0.423%
COc1ccccc1C(CCN(Cc1cccs1)C(C)=O)c1ccco1 (stereo unspecified),"inconclusive: 22.4 µM [inhibitor, partial curve]",
Cc1ccccc1NC(=O)COC(=O)c1ccc(S(C)(=O)=O)c([N+](=O)[O-])c1,active: 12.6 µM,
CC1CCN(c2nc(Cl)nc(Nc3ccc([N+](=O)[O-])cc3)n2)CC1,"inconclusive: 7.08 µM [inhibitor, partial curve]",
CCN1C(=O)/C(=C\c2nc3ccccc3c(=O)n2-c2ccccc2)c2ccccc21,"inconclusive: 20 µM [inhibitor, partial curve]",
CN1/C(=C\C(=O)c2cccnc2)Sc2ccccc21,"inconclusive: 12.6 µM [inhibitor, partial curve]",
Nc1c(C(=O)c2ccccc2)sc2nsc(SCCN3CCOCC3)c12,"inconclusive: 2.51 µM [inhibitor, full curve]",
CCOC(=O)Cc1csc(SCC(=O)NC2CCCCC2)n1,,inactive: -0.245%
CCCCOc1ccc(-c2nnc(-c3ccncc3)o2)cc1,"inconclusive: 14.1 µM [inhibitor, partial curve]",
CC(C)(C)c1ccc(C(=O)NC(=S)Nc2ccc(N3CCOCC3)cc2)cc1,"inconclusive: 5.01 µM [inhibitor, full curve]",
Nc1nn(-c2ccccc2)nc1C(=O)OCc1c(F)cccc1Cl,,inactive: -9.17%
Cc1ccc(N(Cc2cccs2)C(=O)c2ccco2)cc1,,inactive: -5.63%
O=C(CN1C(=O)NC2(CCOc3ccccc32)C1=O)Nc1cccc(Cl)c1 (stereo unspecified),"inconclusive: 2 µM [inhibitor, partial curve, poor fit]",
COc1ccc(CNC(=O)c2cccn2-c2nnc(N3CCCC3)s2)c(OC)c1,,inactive: 2.42%
O=c1c(C(c2ccc(Cl)cc2)c2c(O)nc3n(c2=O)CCCS3)c(O)nc2n1CCCS2,active: 11.2 µM,
Cc1ccc(S(=O)(=O)c2nc(-c3ccc(F)cc3)oc2N2CCN(c3ccccc3)CC2)cc1,"inconclusive: 22.4 µM [inhibitor, single point]",
CCN(CC)c1ccc(C2Nc3ccccc3-c3cc(C)nn32)cc1 (stereo unspecified),"inconclusive: 25.1 µM [inhibitor, single point]",

SMILES,Potency,"activity, negative = inhibition"
Cc1ccc(S(=O)(=O)/C=C\C#N)cc1,"inconclusive: 0.282 µM [inhibitor, full curve]",
COc1cc(/C=C2\CCc3ccccc3C2=O)cc(OC)c1OC,"inconclusive: 25.1 µM [inhibitor, partial curve]",
COc1ccccc1-c1nc2s/c(=C\c3cccs3)c(=O)n2n1,"inconclusive: 20 µM [inhibitor, partial curve]",
CCOCCCNC(=O)/C(C#N)=C/c1ccc(Cl)c([N+](=O)[O-])c1,"inconclusive: 17.8 µM [inhibitor, partial curve]",
CC(=O)OCC1(C)CN(c2ccccc2)N(C(=O)c2ccc(F)cc2)C1=O (stereo unspecified),"inconclusive: 2 µM [inhibitor, full curve, poor fit]",
CCCC1Cc2c(sc3ncnc(N)c23)CO1 (stereo unspecified),"inconclusive: 31.6 µM [inhibitor, partial curve, poor fit]",
Cc1ccc(CNc2ccc3cc(S(=O)(=O)N4CCCCC4)ccc3n2)cc1,,inactive: 4.64%
COc1ccc(N2CCC(CNC(=O)Nc3ccc(C)c(C)c3)C2)cc1 (stereo unspecified),"inconclusive: 15.8 µM [inhibitor, partial curve]",
COc1ccc(OC)c(NC(=O)c2ccc3c(Cl)c4c(nc3c2)CCCC4)c1,"inconclusive: 25.1 µM [inhibitor, single point]",
O=C(NC(=S)N1CCN(Cc2ccc3c(c2)OCO3)CC1)c1ccc(Cl)cc1,"inconclusive: 25.1 µM [inhibitor, single point]",
O=C(Nc1nc(-c2ccc3c(c2)OCCO3)cs1)C1CCCC1,"inconclusive: 15.8 µM [inhibitor, partial curve]",
Cc1ccc(C(=O)CC(=O)c2ccc(C(C)(C)C)cc2)cc1,"inconclusive: 12.6 µM [inhibitor, partial curve]",
Brc1ccc(C2=N[C@@H](Cc3ccccc3)CO2)cc1,"inconclusive: 20 µM [inhibitor, partial curve]",
CC(=Nc1cc(C(=O)c2ccccc2)ccc1N)C1=C(O)CC(C)(C)CC1=O,"inconclusive: 15.8 µM [inhibitor, partial curve]",
CCOc1cc(C#N)c(-n2nnc3c(sc4nc(C)cc(C)c43)c2=O)cc1OCC,,inactive: -3.36%
O=C(Nc1nccs1)c1cc(-c2ccco2)nc2ccccc12,"inconclusive: 15.8 µM [inhibitor, single point]",
CCCCCCCCCCCCC/C=C/[C@@H](O)[C@H](CO)N(C)C,inactive,
O=C(N=NC(=O)c1ccc2c(O)n(C3CCCCC3)c(O)c2c1)c1cccnc1,,inactive: -9.34%
Nc1c(C(=O)Nc2ccccc2)sc2nc3c(cc12)CN(Cc1ccccc1)CC3,"inconclusive: 5.62 µM [inhibitor, partial curve]",
CCCCCCC(=O)N(O)C1CC(=O)N(Cc2ccccc2)C1=O (stereo unspecified),"inconclusive: 25.1 µM [inhibitor, partial curve, poor fit]",
Nc1ccc(Nc2ccccc2)c(Cl)c1,,inactive: -17.5%
COc1cc2oc(=O)cc(-c3ccc(-c4sccc4C=O)cc3)c2c(OC)c1OC,"inconclusive: 44.7 µM [inhibitor, single point]",
Nc1ccc(Nc2nc(-c3ccncc3)cs2)cc1,"inconclusive: 12.6 µM [inhibitor, partial curve]",
CCN(Cc1ccncc1)Cc1c(O)ccc2cc(Br)ccc12,"inconclusive: 15.8 µM [inhibitor, partial curve]",

SMILES,Potency,"activity, negative = inhibition"
Cc1ccc(OCCCn2c(-c3ccc(Cl)cc3)nc3ccccc3c2=O)c(C)c1,,inactive: -8.73%
CCCC(=O)N1CCN(c2nc3ccc(F)cc3s2)CC1,"inconclusive: 22.4 µM [inhibitor, partial curve, poor fit]",
O=C1C(Cl)=C(N2CCOCC2)C(=O)N1c1ccccc1Cl,active: 14.1 µM,
Cc1ccc(C(=O)c2cn(Cc3ccccc3)c3nc(C)ccc3c2=O)cc1,,inactive: -18.2%
C=CCn1cnc2c(c1=O)c1nc3ccccc3nc1n2Cc1ccccc1,,inactive: -13.3%
COc1ccc(N2C(=O)C(Cl)=C(N(CCO)Cc3ccccc3)C2=O)cc1,"inconclusive: 20 µM [inhibitor, partial curve]",
Cc1ccc(-c2c(C)c(-c3ccc(F)cc3)nc(N)c2C#N)o1,"inconclusive: 11.2 µM [inhibitor, partial curve]",
COc1ccc(/C(O)=C2/C(=O)C(=O)N(CCN(C)C)C2c2ccccn2)cc1OC (stereo unspecified),"inconclusive: 22.4 µM [inhibitor, partial curve]",
COc1ccc(Nc2cc(C(=O)NCc3cccnc3)c3ccccc3n2)c(OC)c1,"inconclusive: 17.8 µM [inhibitor, partial curve, poor fit]",
CCc1cccc(C)c1NC(=O)C1CCCN1S(=O)(=O)c1cccc2nsnc12 (stereo unspecified),,inactive: 4.62%
CCSc1nnc2c(Cl)cc(Cl)cn12,,inactive: 0.275%
CN1CCN(S(=O)(=O)c2cccc(C(=O)Nc3sc4c(c3-c3nc5ccccc5[nH]3)CCCC4)c2)CC1,"inconclusive: 25.1 µM [inhibitor, partial curve, poor fit]",
Oc1ccc2ccccc2c1C=NCc1ccccc1,"inconclusive: 25.1 µM [inhibitor, partial curve]",
COc1ccc(NC(=O)c2cc3ccc4c5ccccc5[nH]c4c3cc2O)cc1,active: 2.24 µM,
CNC(=O)[C@H]1O[C@@H](n2cnc3c(NCc4ccc(N)cc4)ncnc32)[C@H](O)[C@H]1O,,inactive: -2.45%
CC(=O)c1ccc(NCC(=O)N2CCN(c3ccccc3)CC2)cc1,"inconclusive: 11.2 µM [inhibitor, partial curve]",
CCCCC1=CC2=C(c3ccco3)C(=O)C(C)(OC(=O)c3cccs3)C(=O)C2=CO1 (stereo unspecified),"inconclusive: 20 µM [inhibitor, partial curve]",
COc1ccc(Nc2nnc(SCC(=O)NC(=O)Nc3ccc4c(c3)OCCO4)s2)cc1,"inconclusive: 5.62 µM [inhibitor, partial curve]",
O=C(Cn1c(=O)c2cccn2c2ccccc21)NCc1ccccc1F,"inconclusive: 14.1 µM [inhibitor, partial curve]",
O=C(N/N=C(\c1ccccc1)c1cccnc1)C(O)(c1ccccc1)c1ccccc1,"inconclusive: 6.31 µM [inhibitor, full curve, poor fit]",
Cc1ccccc1CN1CCN(CC(=O)NCc2ccco2)C1=O,"inconclusive: 31.6 µM [inhibitor, single point]",
COc1ccc(-c2cc(C(=O)Nc3cccnc3)no2)cc1OC,,inactive: -12.4%
COC(=O)CCN(C(=O)c1ccc(N2CCCCC2)c([N+](=O)[O-])c1)c1ccccn1,"inconclusive: 12.6 µM [inhibitor, single point]",
